Target: T1, Active trimeric human CD40 ligand (hCD40L/hCD154; residues 116G-261L) with N-terminal His6-tag (CDL-H5248) (human, UniProt P29965 116-261)
T1 construct: CD40 ligand (CD154), human, residues 116G-261L; Used for SMFS (coupled to the tip by its His6-tag through tris-NTA/Ni) and for HS-AFM; also called trimeric hCD40L; source: bought: AcroBiosystems, USA (CDL-H5248); not shown: His6, N-terminal, kept
T1 sequence (looked up): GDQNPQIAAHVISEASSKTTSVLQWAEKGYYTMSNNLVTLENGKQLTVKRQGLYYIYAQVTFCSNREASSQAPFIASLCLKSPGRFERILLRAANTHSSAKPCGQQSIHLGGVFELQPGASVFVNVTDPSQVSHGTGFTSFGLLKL
Test: high-speed AFM imaging (HS-AFM); 10 nM hCD40L and 10 nM extracellular hCD40 pre-mixed 1:3, on Ni-treated mica; HEPES buffer pH 7.4; hCD40L adsorbed on mica, hCD40 tracked over time; clusters after 45 min incubation
Conditions: both partners purified

B1: Extracellular human CD40 (residues 20P-190D) with C-terminal His6-tag (domain or fragment)
chain: not shown
notes: CD40, human, extracellular part, residues 20P-190D; Seen by HS-AFM as monomers, dimers and higher-order oligomers; also called soluble hCD40; extracellular hCD40; source: Pfizer Inc., USA (provided); not shown: His6, C-terminal, kept
- stoichiometry N: ≤ 2 hCD40 per hCD40L trimer

— PMC12276331, “Nanomechanical binding mechanism of ligands drives agonistic activity” (Nature Communications, 2025)
